# Data taken from PMC4336329 (PLoS ONE, 2015).
# The whole screen tested about 310,000 compounds, of which about 14,000 (4.5%) showed an effect of 50% or more. The effect is printed as a negative number. Some of the results follow.
# Target: human ether-à-go-go-related gene (hERG) potassium channel (human, UniProt Q12809)
# Experiment: primary screen, population patch clamp on CHO cells stably expressing hERG
# 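Further: peak tail current of the secondary pulse compared with the same well before compound.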
# Sequence of human ether-à-go-go-related gene (hERG) potassium channel (Q12809 whole entry, looked up): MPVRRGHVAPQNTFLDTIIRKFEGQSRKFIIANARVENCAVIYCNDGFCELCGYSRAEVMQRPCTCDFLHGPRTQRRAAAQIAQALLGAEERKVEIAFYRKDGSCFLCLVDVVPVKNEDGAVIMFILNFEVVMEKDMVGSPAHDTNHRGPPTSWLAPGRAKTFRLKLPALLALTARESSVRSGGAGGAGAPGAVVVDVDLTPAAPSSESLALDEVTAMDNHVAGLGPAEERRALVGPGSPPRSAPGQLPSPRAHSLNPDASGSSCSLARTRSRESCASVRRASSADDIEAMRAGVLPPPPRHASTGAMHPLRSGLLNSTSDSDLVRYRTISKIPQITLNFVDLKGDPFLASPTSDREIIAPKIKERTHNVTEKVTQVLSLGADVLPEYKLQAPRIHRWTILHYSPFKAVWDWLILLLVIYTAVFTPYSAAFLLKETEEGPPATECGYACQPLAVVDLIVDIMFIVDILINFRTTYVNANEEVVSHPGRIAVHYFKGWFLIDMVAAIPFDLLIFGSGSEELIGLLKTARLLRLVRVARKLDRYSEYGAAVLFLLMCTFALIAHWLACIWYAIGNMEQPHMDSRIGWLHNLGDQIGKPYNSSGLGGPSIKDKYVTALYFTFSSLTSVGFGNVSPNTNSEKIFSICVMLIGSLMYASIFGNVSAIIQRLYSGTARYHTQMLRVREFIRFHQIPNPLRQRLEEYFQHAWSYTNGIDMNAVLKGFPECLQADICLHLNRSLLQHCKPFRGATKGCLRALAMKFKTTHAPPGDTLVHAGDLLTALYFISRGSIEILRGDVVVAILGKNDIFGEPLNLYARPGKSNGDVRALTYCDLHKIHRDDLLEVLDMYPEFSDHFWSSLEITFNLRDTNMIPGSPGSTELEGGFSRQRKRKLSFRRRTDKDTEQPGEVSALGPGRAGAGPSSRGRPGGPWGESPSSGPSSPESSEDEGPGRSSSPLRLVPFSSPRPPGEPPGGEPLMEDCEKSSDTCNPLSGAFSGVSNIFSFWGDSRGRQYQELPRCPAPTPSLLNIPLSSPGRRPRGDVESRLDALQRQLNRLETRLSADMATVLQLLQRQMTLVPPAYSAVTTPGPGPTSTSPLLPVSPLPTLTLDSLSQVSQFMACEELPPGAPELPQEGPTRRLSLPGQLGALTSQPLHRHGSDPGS
row,Compound,"hERG current change (%, negative = inhibition) at 10uM"
1,Cc1cc(C)c(NC(=O)CNC(=O)c2ccccc2OCc2c(C)noc2C)c(C)c1,3.48%
2,Cc1ccc2cc(C3CC(c4ccco4)=NN3S(C)(=O)=O)c(Cl)nc2c1 (stereo not drawn),-15%
3,CCN(CC)C(=O)/C(=C/c1ccc2c(c1)OCO2)NC(=O)c1ccc(Br)cc1,-70.5%
4,Cc1c(Cl)cccc1NC(=S)N(CCCN1CCOCC1)Cc1cccs1,-26.5%
5,c1ccc2cc(CCCc3cc4ccccc4cn3)ncc2c1,-22.6%
6,O=C(Cn1cncn1)NCc1cccc2ccccc12,0.581%
7,CN(C)S(=O)(=O)N1CCC(C(=O)O)(c2ccccc2)CC1,18.7%
8,COc1ccc(/C=C2\SC(=O)N(CCNC(=O)Cn3cnnn3)C2=O)cc1,-31.7%
9,O=C(CCS(=O)(=O)c1ccccc1)Nc1cccc(-c2nc3ccccc3s2)c1,5.96%
10,CCOC(=O)c1c(N)n(-c2ccc(N)cc2)c2nc3ccccc3nc12,-39%
11,O=C(O)C(=O)O.c1ccc(COc2ccc(OCCN3CCCCC3)cc2)cc1,-70.2%
12,CCCCCOC(=O)C1=C(C)NC(=O)NC1c1ccc(OC)cc1 (stereo not drawn),5.95%
13,[O-]c1n[n+](-c2ccc(Cl)cc2Cl)cc2ccccc12,-2.19%
14,CN(C(=O)c1cc(COc2ccc(F)c(F)c2)on1)C1CCOC1 (stereo not drawn),-13.1%
15,COc1ccc(Cc2noc(CN(C)CCN3CCc4ccccc4C3)n2)cc1OC,-35%
16,c1ccc(CSCc2cn3ccsc3n2)cc1,-4.45%
17,CCOc1cc(S(=O)(=O)N(CC)CC)ccc1Cl,-0.543%
18,O=c1[nH]c(CSc2nc(-c3ccc(F)cc3)cs2)nc2ccccc12,4.73%
19,O=C(CN1CCCC1)Nc1ccc(F)c(Cl)c1.O=C(O)C(=O)O,11.5%
20,CSc1nc(-c2ccco2)nn1S(C)(=O)=O,16.2%
21,CC(=O)Nc1ccc(N2CCOCC2)c(C(=O)Nc2cccc(C)c2)c1,-25.8%
22,COc1ccccc1NS(=O)(=O)c1cc(NC(=O)Nc2ccccc2)ccc1N1CCCCC1,-33.9%
23,CS(=O)(=O)N1CCN(c2ccccc2NC(=O)c2ccc(-c3ccc(Cl)cc3Cl)o2)CC1,-4.2%

row,Compound,"hERG current change (%, negative = inhibition) at 10uM"
1,COc1ccc(OC)c(S(=O)(=O)Oc2ccc(N)c3ccccc23)c1,7.83%
2,Cc1c(C(C)(C)C)sc(=NC(=O)c2ccccc2O)n1C,17.1%
3,COc1ccc(-c2nnc(NC(=O)CS(=O)(=O)c3ccc(Cl)cc3)o2)c(OC)c1,19.1%
4,Cc1cc(OCC(C)C)ccc1/C(O)=C1/C(=O)C(=O)N(Cc2cccnc2)C1c1ccncc1 (stereo not drawn),12.2%
5,COC(=O)CCC(=O)Nc1cccc2c(NC(=O)CCC(=O)OC)cccc12,25.9%
6,CC1=NN(c2ccccc2)C(=O)C1C(=O)c1ccccc1 (stereo not drawn),4.95%
7,Cc1ccc(C(=O)NC2CCCCC2)cc1,2.02%
8,CCOC(=O)CSc1nc(C)c(C(C)=O)cc1C(N)=O,37.9%
9,CCCC(C(=O)NCCc1ccc(S(N)(=O)=O)cc1)c1ccccc1 (stereo not drawn),6.6%
10,O=C1[C@H]2[C@@H](c3ccc(F)cc3)N3C(=O)N(c4cccc(F)c4)C(=O)[C@@]3(Cc3ccc(Cl)cc3)[C@H]2C(=O)N1C1CCCCC1,7.12%
11,CCn1c(CC(=O)Nc2ccccc2)nnc1SCC(=O)Nc1nncs1,22.7%
12,Cc1nc(Cl)sc1C(=O)Nc1ccccc1,17.2%
13,COc1ccc(/C=N/Nc2nc(C)cc(=O)[nH]2)cc1OC,14.7%
14,Cc1cc(C)c2c(N)c(C(=O)N3CCN(c4ncccn4)CC3)sc2n1,-2.32%
15,CCOc1ccc(NC(=O)CN2CCN(CC(=O)c3ccc(OC)c(OC)c3)CC2)cc1,-84.4%
16,CC1CN(C(=S)NC(=O)c2ccco2)CC(C)O1 (stereo not drawn),22.3%
17,COC(=O)Cc1[nH]n(-c2nc3ccccc3s2)c(=O)c1C(C)=O,21.6%
18,Cc1ccc(NC(=O)CN(C)CC(=O)Nc2ccc(N3CCOCC3)cc2)c(C)c1,-18.4%
19,CCOC(=O)C1(CCOc2ccccc2)CCN(C(=O)c2cncs2)CC1,-70.7%
20,CC(=O)SC(C)CC(=O)Nc1ccccc1 (stereo not drawn),7.33%
21,COc1ccc(N2CCN(C(CNC(=O)C(=O)NCCCn3ccnc3)c3cccnc3)CC2)cc1 (stereo not drawn),-7.21%
22,CC(C)N1CCC(N2CCN(C/C=C/c3ccc(F)cc3)CC2CCO)CC1 (stereo not drawn),-6.87%
